# Sequences with one replicate were seen in a single cluster, so their values are uncertain.
# Tested on: ATP
# Assay: switch fluorescence ratio, 500 uM ATP over buffer (Cy3 cluster intensity, sum of 5 cycles each) (fold (ratio)); higher = stronger signal-on switching upon ATP binding; sequences stand for … in TCGTCGGCAGCGTCAGATGTGTATAAGAGACAGTTTTTTTTTTTTTTTTTTTTTTTTT…TC
# Conditions: aptamer strand: ATP DNA aptamer (quencher-CACCTGGGGGAGTATTGCGGAGGAAGG + anchor), 100 nM annealed; ATP concentration: 500 uM; one replicate
# In short: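 The fluorescence ratio divides summed target-cycle Cy3 intensity by summed buffer-cycle Cy3 intensity for each cluster and is averaged per switch-domain sequence. Cy3-labelled switching-strand clusters on a modified Illumina MiSeq flow-cell were annealed to 100 nM quencher-labelled ATP aptamer, then imaged in selection buffer and again after 15 min with 500 uM ATP at 22 °C. Five such cycles were run, with NaOH stripping and re-annealing between them, and clusters outside 100-1000 RFU were excluded.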
# 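Also: ATP exposure 15 min at 22 °C before imaging.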
row,Sequence,switch fluorescence ratio
1,CCAAGATGCG,0.989
2,CCAAGCGAGC,1.18
3,CCAAGGGGTA,1.02
4,CCAAGTAAAT,1.04
5,CCAATACGAT,2.64
6,CCAATCGTAG,1.01
7,CCAATGATTC,1.04
8,CCACAGTTTG,1.02
9,CCACATCGTC,1.01
10,CCACATCTGG,0.955
11,CCACCAAGGT,2.01
12,CCACCACGGT,2.02
13,CCACCATGCG,1.16
14,CCACCCTAGA,1.08
15,CCACCGGCTA,3.61
16,CCACGACCT,1.27
17,CCACGACTGC,1.24
18,CCACGCGAGT,1.31
19,CCACGCGGCC,3.04
20,CCACGTCAGC,1.17
21,CCACGTGGCA,1.03
22,CCACGTTTAG,0.991
23,CCACTAACAC,1.34
24,CCACTAGGAA,1.02
25,CCACTCTACA,1.35
26,CCACTCTCCT,1.07

row,Sequence,switch fluorescence ratio
1,CCACTGGAAC,1.11
2,CCACTTTCAA,1.04
3,CCAGAAAAAA,1.01
4,CCAGAAGGCT,1.02
5,CCAGACTTAT,0.978
6,CCAGAGGTGG,0.998
7,CCAGATATGA,0.975
8,CCAGATTGGT,1.02
9,CCAGCCCCAG,1.48
10,CCAGCTGAAG,1.08
11,CCAGCTGAGG,0.982
12,CCAGCTTTC,1.33
13,CCAGGACACG,1.02
14,CCAGGGGATT,1.14
15,CCAGGTAAA,1.01
16,CCAGGTGGGC,1.38
17,CCAGTACCT,1.23
18,CCAGTACTGG,0.971
19,CCAGTAGCT,1.09
20,CCAGTATA,0.997
21,CCAGTATGGT,0.992
22,CCAGTCGCG,1
23,CCAGTCGGG,0.991
24,CCAGTGATAT,1.13
25,CCAGTGTGCT,1.33
26,CCATACTACA,1.11

row,Sequence,switch fluorescence ratio
1,CCATAGGTCT,1.05
2,CCATATTGAT,1.03
3,CCATCCATGT,1.05
4,CCATCCCTAC,4.53
5,CCATGAAAGT,1.03
6,CCATGAATAT,1.02
7,CCATGAGTTG,0.996
8,CCATGGTCTC,0.999
9,CCATGGTTAG,0.991
10,CCATGTAC,1.41
11,CCATGTCACT,0.967
12,CCATGTCCG,0.994
13,CCATGTTGGG,1.05
14,CCATTAGGGA,1.02
15,CCATTAGTGA,1.05
16,CCATTCCGGC,1.21
17,CCATTCCTGG,1.03
18,CCATTCCTTT,0.964
19,CCATTGCAGA,1.15
20,CCATTGGTCA,1
21,CCATTTCAG,1.01
22,CCATTTCCGG,1.02
23,CCATTTGGGG,1.02
24,CCCAAAGGGA,0.979
25,CCCAACAGTA,1.06
26,CCCAACTAAG,1

row,Sequence,switch fluorescence ratio
1,CCCAAGTCTC,1.14
2,CCCACTATTA,0.983
3,CCCAGGAATA,1.46
4,CCCAGGGCCC,0.999
5,CCCAGGGCTT,1.41
6,CCCAGGTTCA,1.28
7,CCCAGTGCAG,1.09
8,CCCATCATTG,1.03
9,CCCATGTGTC,1.48
10,CCCATTGTTG,1.01
11,CCCCAATAG,3.91
12,CCCCAATTAG,1.23
13,CCCCAGTATT,1.17
14,CCCCAGTGGG,1.99
15,CCCCATAGGT,1.51
16,CCCCCGCGTT,6.57
17,CCCCCGGTTC,2.18
18,CCCCCGTTAT,2.42
19,CCCCGGAAAG,1.19
20,CCCCGGCGTG,2.61
21,CCCCGGGGAA,1.05
22,CCCCGTCTGG,0.975
23,CCCCGTTC,1.75
24,CCCCGTTCGA,1.56
25,CCCCTGAGGC,1.06
26,CCCCTGGAAG,1.04

row,Sequence,switch fluorescence ratio
1,CCCCTGGGCC,1.13
2,CCCCTTGTAC,1.72
3,CCCGAGGGAA,1.09
4,CCCGAGGGAG,1.06
5,CCCGAGGTCA,1
6,CCCGATCCTC,1.23
7,CCCGCCAGGG,1.05
8,CCCGCCCACT,1.67
9,CCCGCCCCAG,1.2
10,CCCGCGTTAT,3.8
11,CCCGGACATC,1.5
12,CCCGGCGCGT,1.3
13,CCCGGGTAAT,1.13
14,CCCGGGTGAA,2.24
15,CCCGGTGCAG,1.08
16,CCCGGTGGC,1.15
17,CCCGTAGACT,1.5
18,CCCGTCGGCG,1
19,CCCGTGAAGG,1.05
20,CCCGTTAAGC,1.35
21,CCCGTTATTT,1.09
22,CCCGTTGGGA,1.01
23,CCCTAACTTT,1.03
24,CCCTAGAGGT,1.91
25,CCCTAGG,2.5
26,CCCTAGTCAC,1.17

row,Sequence,switch fluorescence ratio
1,CCCTATACTA,1.35
2,CCCTATTAGG,1.04
3,CCCTATTCAA,1.03
4,CCCTCAAGGG,1
5,CCCTCAGGGC,1.43
6,CCCTCGATGA,1.02
7,CCCTCGCGTT,1.65
8,CCCTGAATGC,2.28
9,CCCTGATATT,1.04
10,CCCTGCTGAT,1.23
11,CCCTGGAAG,1.32
12,CCCTGGGAGC,1.02
13,CCCTGGGTAT,1
14,CCCTTAGGGG,1.06
15,CCCTTGCCAC,1.22
16,CCCTTTGGGC,1.03
17,CCGAACAGTG,1.32
18,CCGAACCGGG,0.992
19,CCGAATAGTG,1.08
20,CCGAATCAAG,2.09
21,CCGAATCC,1.47
22,CCGAATGGAA,1.07
23,CCGAATTAAC,2.46
24,CCGACAGGGA,1.19
